# The list shows a part of the results.
# B1: SEX4 (Arabidopsis thaliana), Q944A8 (protein)
# chain: TQAMGAVLTYRHELGMNYNFIRPDLIVGSCLQTPEDVDKLRKIGVKTIFCLQQDPDLEYFGVDISSIQAYAKKYSDIQHIRCEIRDFDAFDLRMRLPAVVGTLYKAVKRNGGVTYVHCTAGMGRAPAVALTYMFWVQGYKLMEAHKLLMSKRSCFPKLDAIRNATIDILTGLKRKTVTLTLKDKGFSRVEISGLDIGWGQRIPLTLGKGTGFWILKRELPEGQFEYKYIIDGEWTHNEAEPFIGPNKDGHTNNYAKVVDDPTSVDGTTRERLSSEDPELLEEERSKLIQFLETCSEAEV
# What was measured:
# Test in all cases: glycan array binding signal (z-score within array); higher = stronger binding
# Settings in all cases: glycan notation: IUPAC condensed, linker removed
# [1] = target: Gal(b1-4)GlcNAc(b1-6)[Gal(b1-3)]GalNAc
# Method in brief: (§1)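 The binding signal is a Z-score computed within each array and averaged over linkers. Arrays of the same protein sequence at different concentrations or buffers were also averaged together. Data originate from 3228 arrays in the Consortium for Functional Glycomics database, kept only where the protein sequence was available.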
# Gal(b1-6)Gal = target: Gal(b1-6)Gal
# Method in brief: as §1
# Gal3S(b1-3)GalNAc = target: Gal3S(b1-3)GalNAc
# Method in brief: as §1
# Gal3S(b1-3)GlcNAc = target: Gal3S(b1-3)GlcNAc
# Method in brief: as §1
# [2] = target: Gal3S(b1-3)[Fuc(a1-4)]GlcNAc
# Method in brief: as §1
# Gal3S(b1-4)Glc = target: Gal3S(b1-4)Glc
# Method in brief: as §1
# Gal3S(b1-4)Glc6S = target: Gal3S(b1-4)Glc6S
# Method in brief: as §1
# Gal3S(b1-4)GlcNAc = target: Gal3S(b1-4)GlcNAc
# Method in brief: as §1
# Gal3S(b1-4)GlcNAc6S = target: Gal3S(b1-4)GlcNAc6S
# Method in brief: as §1
# [3] = target: Gal3S(b1-4)[Fuc(a1-3)]Glc
# Method in brief: as §1
# [4] = target: Gal3S(b1-4)[Fuc(a1-3)]Glc6S
# Method in brief: as §1
# Gal3S4S(b1-4)GlcNAc = target: Gal3S4S(b1-4)GlcNAc
# Method in brief: as §1
# Gal3S6S(b1-4)GlcNAc = target: Gal3S6S(b1-4)GlcNAc
# Method in brief: as §1
# Gal3S6S(b1-4)GlcNAc6S = target: Gal3S6S(b1-4)GlcNAc6S
# Method in brief: as §1
# Gal4S(b1-4)GlcNAc = target: Gal4S(b1-4)GlcNAc
# Method in brief: as §1
# Gal4S6S(b1-4)GlcNAc = target: Gal4S6S(b1-4)GlcNAc
# Method in brief: as §1
# Gal6S(b1-3)GlcNAc = target: Gal6S(b1-3)GlcNAc
# Method in brief: as §1
# Gal6S(b1-3)GlcNAc6S = target: Gal6S(b1-3)GlcNAc6S
# Method in brief: as §1
# Gal6S(b1-4)Glc = target: Gal6S(b1-4)Glc
# Method in brief: as §1
# Gal6S(b1-4)Glc6S = target: Gal6S(b1-4)Glc6S
# Method in brief: as §1
# Gal6S(b1-4)GlcNAc = target: Gal6S(b1-4)GlcNAc
# Method in brief: as §1
# Gal6S(b1-4)GlcNAc6S = target: Gal6S(b1-4)GlcNAc6S
# Method in brief: as §1
# GalNAc(a1-3)Gal = target: GalNAc(a1-3)Gal
# Method in brief: as §1
# GalNAc(a1-3)GalNAc = target: GalNAc(a1-3)GalNAc
# Method in brief: as §1
# [5] = target: GalNAc(a1-3)GalNAc(a1-3)Gal(a1-4)Gal(b1-4)GlcNAc
# Method in brief: as §1
# [6] = target: GalNAc(a1-3)GalNAc(b1-3)Gal(a1-4)Gal(b1-4)Glc
# Method in brief: as §1
# GalNAc(b1-3)Gal = target: GalNAc(b1-3)Gal
# Method in brief: as §1
# [7] = target: GalNAc(b1-3)Gal(a1-4)Gal(b1-4)GlcNAc
# Method in brief: as §1
# [8] = target: GalNAc(b1-3)Gal(a1-4)Gal(b1-4)GlcNAc(b1-3)Gal(b1-4)Glc
# Method in brief: as §1
# [9] = target: GalNAc(b1-3)Gal(a1-6)Gal(b1-4)Glc
# Method in brief: as §1
# GalNAc(b1-3)GalNAc = target: GalNAc(b1-3)GalNAc
# Method in brief: as §1
# GalNAc(b1-4)GlcNAc = target: GalNAc(b1-4)GlcNAc
# Method in brief: as §1
# [10] = target: GalNAc(b1-4)GlcNAc(b1-2)Man(a1-3)[GalNAc(b1-4)GlcNAc(b1-2)Man(a1-6)]Man(b1-4)GlcNAc(b1-4)GlcNAc
# Method in brief: as §1
# GalNAc(b1-6)GalNAc = target: GalNAc(b1-6)GalNAc
# Method in brief: as §1
# Glc(a1-4)Glc = target: Glc(a1-4)Glc
# Method in brief: as §1
# Glc(a1-6)Glc(a1-6)Glc = target: Glc(a1-6)Glc(a1-6)Glc
# Method in brief: as §1
# Glc(b1-4)Glc = target: Glc(b1-4)Glc
# Method in brief: as §1
binder,measurement,setting,value
B1,glycan array binding signal (z-score),[1],0.217
same,glycan array binding signal (z-score),Gal(b1-6)Gal,-0.165
same,glycan array binding signal (z-score),Gal3S(b1-3)GalNAc,-0.502
same,glycan array binding signal (z-score),Gal3S(b1-3)GlcNAc,-0.45
same,glycan array binding signal (z-score),[2],-0.443
same,glycan array binding signal (z-score),Gal3S(b1-4)Glc,-0.369
same,glycan array binding signal (z-score),Gal3S(b1-4)Glc6S,1.2
same,glycan array binding signal (z-score),Gal3S(b1-4)GlcNAc,-0.489
same,glycan array binding signal (z-score),Gal3S(b1-4)GlcNAc6S,0.229
same,glycan array binding signal (z-score),[3],0.333
same,glycan array binding signal (z-score),[4],1.79
same,glycan array binding signal (z-score),Gal3S4S(b1-4)GlcNAc,0.253
same,glycan array binding signal (z-score),Gal3S6S(b1-4)GlcNAc,-0.067
same,glycan array binding signal (z-score),Gal3S6S(b1-4)GlcNAc6S,2.76
same,glycan array binding signal (z-score),Gal4S(b1-4)GlcNAc,-0.381
same,glycan array binding signal (z-score),Gal4S6S(b1-4)GlcNAc,0.374
same,glycan array binding signal (z-score),Gal6S(b1-3)GlcNAc,-0.273
same,glycan array binding signal (z-score),Gal6S(b1-3)GlcNAc6S,1.27
same,glycan array binding signal (z-score),Gal6S(b1-4)Glc,0.288
same,glycan array binding signal (z-score),Gal6S(b1-4)Glc6S,1.62
same,glycan array binding signal (z-score),Gal6S(b1-4)GlcNAc,0.104
same,glycan array binding signal (z-score),Gal6S(b1-4)GlcNAc6S,0.852
same,glycan array binding signal (z-score),GalNAc(a1-3)Gal,-0.582
same,glycan array binding signal (z-score),GalNAc(a1-3)GalNAc,-0.542
same,glycan array binding signal (z-score),[5],-0.189
same,glycan array binding signal (z-score),[6],-0.507
same,glycan array binding signal (z-score),GalNAc(b1-3)Gal,-0.521
same,glycan array binding signal (z-score),[7],-0.406
same,glycan array binding signal (z-score),[8],-0.129
same,glycan array binding signal (z-score),[9],-0.059
same,glycan array binding signal (z-score),GalNAc(b1-3)GalNAc,-0.534
same,glycan array binding signal (z-score),GalNAc(b1-4)GlcNAc,-0.505
same,glycan array binding signal (z-score),[10],0.582
same,glycan array binding signal (z-score),GalNAc(b1-6)GalNAc,-0.455
same,glycan array binding signal (z-score),Glc(a1-4)Glc,-0.393
same,glycan array binding signal (z-score),Glc(a1-6)Glc(a1-6)Glc,-0.414
same,glycan array binding signal (z-score),Glc(b1-4)Glc,-0.561

# Reference: the supplement of paper PMC8728848
